Source: PubChem BioAssay AID743262 (National Center for Advancing Translational Sciences (NCATS), 2014)
Screen size: about 1,300 compounds; about 25 (2%) were called active. Roughly 9% stayed inconclusive and do not appear here. The call rests on the fitted dose curve; in most records, active means well fitted activation curve with a large enough effect; inconclusive means small, poorly fitted or top-dose-only effect; inactive means flat fitted curve, though single readings scatter. The list shows a part of the results.

Target: Glucagon-like peptide 1 receptor (Homo sapiens) (UniProt P43220)
Sequence of UniProt P43220 (P43220 whole entry, looked up): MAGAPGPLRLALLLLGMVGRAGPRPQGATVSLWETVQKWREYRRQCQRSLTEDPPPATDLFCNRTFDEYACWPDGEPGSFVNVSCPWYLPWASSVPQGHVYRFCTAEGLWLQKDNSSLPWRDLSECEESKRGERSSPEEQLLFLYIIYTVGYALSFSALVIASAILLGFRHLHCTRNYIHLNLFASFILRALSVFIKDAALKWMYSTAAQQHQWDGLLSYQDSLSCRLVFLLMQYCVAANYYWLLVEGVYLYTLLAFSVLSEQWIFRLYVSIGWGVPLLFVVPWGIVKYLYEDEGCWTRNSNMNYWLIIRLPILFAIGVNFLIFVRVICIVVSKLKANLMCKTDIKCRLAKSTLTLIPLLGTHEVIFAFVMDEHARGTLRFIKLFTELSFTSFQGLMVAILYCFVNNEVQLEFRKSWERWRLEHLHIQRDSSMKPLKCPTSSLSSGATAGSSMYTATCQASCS
Assay: qHTS of GLP-1 Receptor Agonists: Hit Validation; on activation: % of control where 0% means no effect
Details: HEK293 GLP-1R, cAMP-response luciferase, 4-6 h; series mostly up to 46.1 µM; activation: at the top concentration
Excerpt: The overall goal of this project was to develop a novel assay for discovering small molecule ligands for class B1 G protein-coupled receptors (GPCRs). Very few agonists (or inverse agonists) with generally weak activity for this entire group of physiologically important receptors are known to date. To establish proof-of-principle that this critical bottleneck can be overcome with a suitable screening approach, our studies focused on the class B1 receptor for glucagon-like peptide-1 (GLP-1R), a potential therapeutic target for diabetes and neurodegenerative disease. The assay was developed in a "mix and measure" format using a cell-based functional readout. Toward this goal, stably transfected HEK293 cell clones were established that co-express (i) a cAMP-responsive luciferase reporter gene, and (ii) GLP-1Rs that upon ligand interaction either stimulate (agonists) or inhibit (inverse agonists) luciferase activity. In different cell lines to be used for screening, expressed GLP-1Rs are specifically optimized for high sensitivity detection of either weak agonists (hypersensitive receptor) or inverse agonists (constitutively active receptor mutant). In addition, control cell lines were developed that express either the cAMP-responsive reporter gene without recombinant GLP-1Rs (enabling initial exclusion of GLP-1R independent effects of candidate probes), or the reporter gene together with wild type GLP-1Rs (for confirmation of probe activity at this receptor), or the reporter gene in combination with the constitutively active orphan receptor GPR119 (enabling initial exclusion of GLP-1R independent inhibitory effects of candidate inverse agonists). To that end, this assay was optimized for 1536-well format and screened against the MLSMR. NIH Molecular Libraries Probe Production Network [MLPCN] NIH Chemical Genomics Center [NCGC] Grant: NS064851 PI Name: Martin Beinborn, Tufts Medical Center
In a white solid 1536-well plate, 6 uL of cells are dispensed in DMEM without phenol red, 10% Nu serum, and 1% pen-strep medium. The plates are then incubated for 12 hours at 37 deg C at 5% CO2 before 23 nL of compounds are added. After a 4-6 hr incubation at37 deg C and 5% CO2, 3 uL of detection reagent are added and after a 12 min incubation at RT, a luminescent read is obtained on the ViewLux.
Potency means the concentration at half of the fitted maximal effect.

activation, inactive:
CSc1nc(N)nc(SCC(=O)OC(C)C)c1C#N 5.44%
CNS(=O)(=O)c1ccc(OC)c(-c2nnc3c4ccccc4c(C)nn23)c1 20.7%
CS(=O)(=O)c1ccc(Nc2nc(C(N)c3ccccc3)cs2)cc1 (configuration not stated) 0.347%
COc1ccc(N/C=C\C(=O)c2ccc3c(c2)OCO3)cc1OC 9.71%
CC(=O)c1cc(C#N)c(SCC(=O)OC(C)(C)C)nc1C 4.82%
Brc1ccc(-c2nnc(Cc3ccccc3)o2)cc1 2.36%
CCOC(=O)c1ccc2nc(C)c3c(c2c1)OC(C)C3 (configuration not stated) 4.77%
Cc1sc2ncnc(N(C)Cc3cccs3)c2c1C 6.84%
O=C(Nn1cnnc1)c1cccc(S(=O)(=O)N2CCOCC2)c1 -0.469%
CCOc1cc(-c2nccc3cc(OC)c(OC)cc23)cc(OCC)c1OCC 14.6%
C=C(C)COc1ccc(-c2nc(N)ncc2-c2ccc(OC)c(OC)c2)c(O)c1 21.9%
CCOc1ccc(CCNC(=O)c2ccc3ccccc3n2)cc1OCC 2.41%
ClCCn1cnc2c(SCc3ccccc3Cl)ncnc21 11.4%
Cc1ccc(CNc2oc(-c3cccs3)nc2C#N)cc1 7.42%
COc1ccc2c(c1)c(C(=O)N/N=C/c1ccc(OC)c(OC)c1)c(C)n2C 5.77%
Clc1cccc(Nc2nc(-c3cccnc3)cs2)c1 4.84%
CCOC(=O)C1=C(COC(=O)c2cc(S(=O)(=O)N3CCOCC3)ccc2F)NC(=O)NC1C (configuration not stated) 20.7%
O=C1CCCc2oc3c(cc(NS(=O)(=O)c4ccc5c6c(cccc46)C(=O)N5)c4ccccc43)c21 16.2%
COc1cccc(C(=O)c2c(-c3ccccc3)ncc3cc(OC)c(OC)cc23)c1 24.1%
NC(=O)c1nsc(C(=O)N(CC(=O)NC2CCCCC2)Cc2ccc(F)cc2)c1N -0.188%
Cc1cc(Cl)ccc1C(=O)C1CCCN(C(=O)CN2CCOC2=O)C1 (configuration not stated) 0.21%
CCCOc1ccc2c(=O)c(-c3cc(C(=O)OC)oc3C)c(C)oc2c1 0.445%
COc1ccc(NC(C)=O)cc1S(=O)(=O)NC(Cc1ccccc1)C(=O)NC(C)c1ccccn1 (configuration not stated) -0.833%
CSc1nc2[nH]c3c(c2c2nnnn12)CCCC3 5.08%
CCOC(=O)C1=C(N)Oc2cc(C)n(CCc3ccc(OC)c(OC)c3)c(=O)c2C1c1cccnc1 (configuration not stated) 9.06%
COCCn1c(C)cc(C(=O)CSc2nc3ccccc3c(=O)n2C(C)COC)c1C (configuration not stated) 4.39%
Cc1cc(C)cc(C(=O)NCC(=O)OCC(=O)NC2CCCc3ccccc32)c1 (configuration not stated) -0.538%
Cc1nc(COc2ccccc2Cl)sc1-c1ccnc(N)n1 19.3%
CC(=O)Nc1cc(-c2ccccc2Cl)cn2c(-c3ccc(S(C)(=O)=O)cc3)cnc12 26.3%
COc1ccc(C(=O)Nc2ccccc2C(=O)N/N=C/c2ccccn2)cc1OC 2.4%
CCn1nc(C(=O)OCc2c(C)noc2C)c2ccccc2c1=O 5.6%
CCOc1ccc(CCNS(=O)(=O)c2cnc[nH]2)cc1OCC -0.341%
CC(C)Oc1ccccc1C1CC(=O)Nc2cc3c(cc21)OCCO3 (configuration not stated) 15.9%
CCN(Cc1ccc(OC)c(F)c1)C(=O)c1cc2ccccc2o1 14.9%
O=C(CCC(=O)c1ccccc1)NCc1cccc(C(F)(F)F)c1 -0.927%
C=CCN1N=C(c2ccc(Cl)s2)CSC1=O 4.36%
CCc1cc2c(NCC3CCCO3)nc(C)nc2s1 (configuration not stated) -0.988%
COc1ccc(/C=C2\Sc3ccc(C(=O)NCc4cccnc4)cc3N(C)C2=O)cc1OC 26.3%
COc1cc(SC)ccc1C(=O)NC1CCCCC1 0.215%
Cc1cccc(C)c1NC(=O)CC(NCc1ccco1)C(=O)O (configuration not stated) -1.01%
CC1(C)Cc2c(c(N3CCCC3)nc3sc4c(N5CCN(CCO)CC5)ncnc4c23)CO1 17.7%
CCN(CC(=O)Nc1ccc(NC(C)=O)cc1)C(=O)C1CC1 -0.0804%
CCn1nc(C(=O)N[C@@H](CCSC)c2nc3ccccc3[nH]2)c2ccccc2c1=O 5.64%
CCC1CCCCN1S(=O)(=O)c1ccccc1 (configuration not stated) -0.773%
O=C(N/N=C/c1cn(Cc2ccccc2)c2ccccc12)c1cc(O)cc(O)c1 23.1%
CCn1c(SCc2nc3ccccc3s2)nnc1-c1ccccc1 2.02%
N/C(Cc1cccs1)=N\OC(=O)COc1ccc(Br)cc1Cl -0.482%
C[C@H]1CC[C@H]2C(=O)N[C@H](Cc3ccccc3)C(=O)N2[C@@H]1c1ccccc1 -1.89%
CC(C)(C)c1nc(NCCO)c2nnn(Cc3ccccc3)c2n1 3.59%
Cc1cc(=O)oc2c3c(cc(OCC(=O)NCc4ccncc4)c12)OC(C)(C)CC3 4.46%
O=C(COC(=O)c1cc([N+](=O)[O-])ccc1NCCO)Nc1cccnc1Cl 2.91%
COc1ccc(-c2cnc3c(NC(C)=O)cc(-c4ccc(C(=O)NC5CC5)cc4)cn23)cc1OC 24.6%
CCOC(=O)C1C(=O)OC(C)(C)C1C(C)C(=O)c1ccc(C)cc1C (configuration not stated) 0.36%
CCOC(=O)c1sc(NC(=O)C2=COCCO2)c(C#N)c1C 1.43%
COc1cc(C#Cc2ccc3cc(CCO)oc(=O)c3c2)cc(OC)c1 29.7%
COc1cccc(/C=N/n2cnc3cc(C)c(C)cc32)c1OC 10%
CCOc1ccc(C(C)NC(=O)c2ccccc2OCc2c(C)noc2C)cc1OCC (configuration not stated) -0.281%
COc1ccc(-c2nc(C(N)=O)c3[nH]c(=O)n(-c4cccc(C)c4)c3n2)c(OC)c1 17.2%
COCCN1C=C(C(=O)OC)C(c2cc(Br)c(OC)c(OC)c2)C(C(=O)OC)=C1 -0.42%
COc1ccc(-c2csc(C3=C(O)CN(C(C)C)C3=N)n2)cc1OC 24.3%
CCOc1ncccc1C(=O)OCCN1C(=O)c2ccccc2C1=O 0.839%
CCn1c(=O)[nH]c(=O)c2c(N)c(C(=O)c3ccccc3OC)sc21 19.8%
COc1ccc(-c2cnc3c(NC=O)cc(-c4ccc(C(=O)N5CCOCC5)cc4)cn23)cc1OC 22.4%
CCOc1ccc2ccccc2c1/C=N/NC(=O)c1cc(C)[nH]n1 0.23%
CC1CCc2sc3ncnc(N4CCN(CCO)CC4)c3c2C1 (configuration not stated) 4.17%
N#CCSc1nc(N)c(C#N)c(C2CCCCC2)c1C#N 27.1%
COc1ccc(-c2nc(N)ncc2-c2ccc(OC)c(OC)c2)c(O)c1 13.8%
Cc1ccnc(SCc2cc(=O)c(OC(=O)c3cccs3)co2)n1 -1.16%
CCOC(=O)n1c(=O)n(Cc2ccccc2Cl)c2ccccc21 3.3%
COC(=O)c1cc(OC)c(OC)cc1NC(=O)Cc1ccccc1[N+](=O)[O-] 2.64%
COc1ccc(-c2nnc(CSc3nc4ccccc4c(=O)n3CC(C)C)o2)cc1OC 25.3%
COc1cc(-c2cc(-c3ccc(O)cc3)nc(N)c2C#N)ccc1O 10.9%
c1ccc(C2COC(c3cccs3)=N2)cc1 (configuration not stated) 2.36%
COc1ccc(-c2cc(C(=O)N(C)Cc3cccc(OC)c3OC)c3ccccc3n2)cc1OC 21.9%
CCOC(=O)c1c(C)[nH]c(C(=O)N/N=C/c2ccc(Br)cc2)c1C 15.3%
CN(c1ccccc1)c1nc(N)c([N+](=O)[O-])c(Nc2ccccc2F)n1 25.7%
CCS(=O)(=O)NCCc1cc2ccc(C)cc2[nH]c1=O -0.645%
CCOC(=O)c1c(C)n(C)c2cc(Br)c(C(=O)OC)cc12 19.6%
C=CCn1c(SCc2cc(C(C)=O)ccc2OCC)nc2ccccc2c1=O 16.2%
O=[N+]([O-])c1ccccc1OCCCOc1cccc2cccnc12 14.7%
CC(C)OC(=O)CSc1nc(N)c(C#N)cc1C#N 6.86%
Cc1cc(C)c(NS(=O)(=O)c2ccc(NC(=O)CCC(=O)O)cc2)c(C)c1 -0.308%
CC(OC(=O)c1ccc2ncsc2c1)C(=O)NC1CCCCC1C (configuration not stated) 2.27%
COc1ccc(C2CC(c3ccc4ccccc4c3OC(C)=O)=NN2C(C)=O)cc1 (configuration not stated) 7.64%
Cc1cc(N(C)C)ccc1N=Nc1ccc(N)cc1 5.08%
CCOc1ccc(C(=O)OCC(=O)Nc2cccnc2Cl)cc1OCC 2.67%
COc1cc2c(cc1[N+](=O)[O-])n(C(C)C)c(=O)n2C(C)C 12.1%
COc1ccc(-n2cnc3cc(NS(=O)(=O)c4ccccc4)ccc32)cc1 13.6%
N#CCSc1nc2ccccc2c(=O)n1CC1CCCC1 4.81%
Cc1ccc(C)c(C(=O)c2ccccc2NC(=O)c2ccccn2)c1 6.44%
COc1cc2ccnc(Cc3cccc(OC)c3OC)c2cc1OC 21.2%
COc1ccc(C(=O)NC2CC(C)(C)Cc3c2cnn3-c2ccccc2C)c(OC)c1OC (configuration not stated) 1.2%
COc1ccc(C(=O)c2cc([N+](=O)[O-])ccc2N2CCOCC2)cc1 9.91%
c1ccc(-c2nn3nnnc3c3ccccc23)cc1 3.31%
C=CCOc1ccc(Cl)cc1-c1noc(-c2csc([C@H]3C[C@H](O)[C@@H](CO)O3)n2)n1 8.57%
C/C(=N\NC(=O)CC(C)C)c1ccc(Cl)c(Cl)c1 6.12%
COC(=O)C1=CN(Cc2ccc(OC)cc2)C=C(C(=O)OC)C1c1cc(OC)c(OC)c(OC)c1 0.276%
CN=C1S/C(=C\c2ccc(O)c(OC)c2)C(=O)N1C 11%
COc1ccc(-c2cnc3c(NC(C)=O)cc(-c4cccc(C(=O)NCCN(C)C)c4)cn23)cc1OC 18.3%
Cc1ccc(S(=O)(=O)N/N=C/c2ccc(O)cc2O)cc1[N+](=O)[O-] -0.854%
COc1ccccc1C(=O)OCc1nc(N)nc(Nc2ccccc2C)n1 7.28%
CC1Cc2cc(S(=O)(=O)N3CCCC(C(=O)N4CCCCC4)C3)ccc2N1C(=O)C1CC1 (configuration not stated) 10.9%
COC(=O)C(C)Sc1nc2c(c(=O)[nH]c(=O)n2C)n1CCCc1ccccc1 (configuration not stated) 13.2%
CSc1ncccc1C(=O)OCc1ccccc1Cl 3.59%
COc1ccc(/C(N)=N/OC(=O)c2c(-c3ccccc3Cl)noc2C)cc1OC 14.6%

Potency, active:
COc1ccc(-c2cc(NC=O)c3ncc(-c4ccc(OC)c(OC)c4)n3c2)cc1 18.4 µM
CCN(CC)CC(=O)Nc1scc2c1c(=O)oc1ccccc12 8.2 µM
